Experimental findings from the supplement of paper PMC7826260 are described below.

Some of the results follow. Each Rep nickase domain was tested in vitro on the same pool of single strands (3 µM enzyme, 1 h, 37 °C); shown is the middle of each 90-letter strand. Numbers give uncut DNA relative to the enzyme-free pool, as log2; uncut sequences lie near 0, cut ones below; no hit call is given. Counts are relative to all reads; values above 0 arise when much of the pool is cut.

The experiment relates to T1, Rep nickase domain of maize striate mosaic virus.
T1 sequence (residues 1-117 of Rep, tag left off): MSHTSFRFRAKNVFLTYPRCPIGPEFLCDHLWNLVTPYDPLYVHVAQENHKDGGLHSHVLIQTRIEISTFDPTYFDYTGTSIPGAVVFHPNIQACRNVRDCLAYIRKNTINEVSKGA
As to the kind of experiment: uncleaved DNA left, log2 of reads against the no-enzyme library (log2 ratio); higher = less cleavage (more negative = more Rep cleavage of the k-mer); sequences stand for … in CTCGTCCG…ACCGGAGA
On the procedure:
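A pool of 90-nt single-stranded DNAs with seven random bases just before the constant AC of the nick site (name = the seven bases) was cut by 3 µM recombinant His6-SUMO-tagged Rep nickase domain (300 nM DNA, 50 mM HEPES pH 8.0, 50 mM NaCl, 1 mM MnCl2, 1 h, 37 °C, three replicates). Uncut DNA was amplified and sequenced.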
For GTCAACA, the “uncleaved DNA left (log2)” value amounted to 1.72. With ACTGTGT, the “uncleaved DNA left (log2)” value was -1.01.

For GTCGACC, the “uncleaved DNA left (log2)” value was determined as 0.406. Consider TTCTTCC, for which the “uncleaved DNA left (log2)” value was -0.279. The result for AACAAGT reads -0.799; that for GCATGAG, -0.73; that for ATTCACA, -0.751.

Turning to GAACCAC, the “uncleaved DNA left (log2)” value came to 0.654. For AGATGGC the value was -0.978; for GTGCAAT, 1.78; for CCCTCAG, -1.08. The result for GTGGATA reads 2.08. The result for CTAACTA reads -0.614; that for AACTTGC, -1.1. As to AGTTCTA, the “uncleaved DNA left (log2)” value turned out to be 0.134. For GTGGTTT the value was 1.7; for CGGGACG, 1.79. For AACACTC, the “uncleaved DNA left (log2)” value is -0.735. The result for TGCGCCG reads -0.761.

Consider CCATCTA, for which the “uncleaved DNA left (log2)” value was -0.642. For TAACTGT the value was 0.905; for GGGCACA, 2.26; for CCTAGCT, -0.695. The result for TGGAAGG reads 1.06; that for CTCACAA, -0.427. The result for CGAGATC reads 0.0296; that for TGATTAA, -0.000864; that for GTAAAGC, -0.0553.

As to TGCTACG, the “uncleaved DNA left (log2)” value was -1.34.

In the case of GATCGTC, the “uncleaved DNA left (log2)” value is 0.219.

Regarding TGTAATG, the “uncleaved DNA left (log2)” value is -0.639. For CCATGGA the value was -0.825; for ATACGCA, -0.933.

Consider ATGACCA, for which the “uncleaved DNA left (log2)” value was found to be 0.364. As to CTCGATT, the “uncleaved DNA left (log2)” value was -0.349. In the case of AACCATA, the “uncleaved DNA left (log2)” value is -0.762.

As to CCGGAGA, the “uncleaved DNA left (log2)” value turned out to be 0.326. For GGCGCTA, the “uncleaved DNA left (log2)” value worked out at 1.53. Take ATTTAGC: the “uncleaved DNA left (log2)” value was -1.16. The result for CTGTATG reads -1.31.
